± gives the standard deviation of the averaged measurements. Whole data set: some 4,100 sequences, median “arbitrary fluorescence units” near 780, cut for the highest 2% near 22,000. The list shows a part of the results.
biological target: T1, ETS1 (UniProt P14921); assay: ETS1 binding intensity (PBM fluorescence), ETS1 alone (arbitrary fluorescence units); higher = stronger binding; details: ETS1 concentration 1 nM; RUNX1 concentration 0 nM
T1 sequence: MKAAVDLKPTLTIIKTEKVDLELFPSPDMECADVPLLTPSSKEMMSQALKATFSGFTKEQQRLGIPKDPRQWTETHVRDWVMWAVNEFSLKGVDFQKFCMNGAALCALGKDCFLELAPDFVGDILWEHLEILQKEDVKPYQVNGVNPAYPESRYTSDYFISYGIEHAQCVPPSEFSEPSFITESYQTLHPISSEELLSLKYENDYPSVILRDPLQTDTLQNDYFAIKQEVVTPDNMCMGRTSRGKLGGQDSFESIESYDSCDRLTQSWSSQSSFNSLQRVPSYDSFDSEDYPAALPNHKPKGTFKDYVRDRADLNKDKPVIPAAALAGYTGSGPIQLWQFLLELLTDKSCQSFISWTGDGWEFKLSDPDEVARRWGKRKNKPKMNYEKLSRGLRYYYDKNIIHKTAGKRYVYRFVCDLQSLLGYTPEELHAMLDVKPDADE
Procedure: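 gcPBM on 36-bp genomic-derived probes (partner site mutated) containing one ETS1 site and no RUNX1 site. Recombinant human ETS1 (1 nM) was incubated alone or with RUNX1 (25 nM) and detected by anti-ETS1 antibody fluorescence. Values are medians over 4 replicate spots (not normalised). The probes sit in constant array flanks that are not printed.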

Sequence | ETS1 binding intensity
CTGAGCCGGATGTTACTGGATAGTGCTTTTCTTTAT | 6150
CCTCGCCCCCTTCCGCACCCACCCCAGCGCGCTCCG | 1640
CCCGACTTCCGCCGCTGGTGTCCACCAGCAGGTAGT | 16300
GTGTGAGCCACGGCGCCAAGCCACACTTCCTTCTGC | 457
TAGAGGAGCAGCCGCCGACCAGACATCCGGGTCCCT | 1160
CCCAGGGCAAGCGCTTGCCTCCCGCGGACGTGCATC | 369
GTATTGTTTATCACAGCTATTTCCTTGAGAAGTTTC | 720
ATAATAACTACAAGAGATCTGATTTCCGTTGCTGGT | 1150
TGAGCCGTAGACACCAAAAATCCCACAGGAAGTTGT | 644
GCCGTGCTGTTTCCAGGCCCTACTTCCTGCCATATC | 3420 ± 460
TGGTCGCCGAAGCGAACAACCAGCTTCCGGCAAGCT | 4880
CTGTGCTTGTAGGCGAAGCCAGGAAATAAGGATAAA | 652
AATCACTGACACCTACACAGCCGTTTCCTGCACTTA | 1140
CTCGTGTTTTGTAGCTGTGTTCTGTCCGGTCAGTTG | 502 ± 32
CTCCGGGAACAGCGGAAAAGGGACCCCATGAACCTC | 624
CACGGAGCCACTTCCGGCGGCTGTGAGCGCAAAACC | 35500
TGCTTCCGGCGGGCGCTTGCTCCCCGAGGTCGGCAA | 24800
CCTGACCTCTCTGGGAACACACAGGAAGTGGTTCAT | 2690
AGAACAGCAGGAAATAAATACTCACCTCAGGACTGC | 1550
CGAGGGAGCCGGAAAGATGGTGCTTACCAGATCTGC | 693
CGGGAATCCACGGAATTTACTGCCGGAAGTTCGGCG | 2700
CCACCGCCCCGAAGCTCACACCGGATGTGCGACAGA | 7720
TCCAAGGCGGAAAAAACCCGCCCTAAACAGCACCCC | 371
CTTTGCTGCAGGATGTTCTAACTACAAGCCCAGGAG | 1470
GGCCTTTTCTTCCGCCCTCACAGCCACCGTGACCCA | 1610
ACTCACTTCCGTTTAGCTTATCAACTACCAAGAGAC | 35500
CTAGAGACTCGGTAGAAAGGTTCCGCCCGCTCCCTG | 311

Sequence | ETS1 binding intensity
TTCTGCGCCGCCGCCTCAGTCCCTTCTCAGGATGGG | 313
CGAGCTCGGTGTTCCGCTTTTTGTAGGCCGGGTGGG | 594
GAGCAAGCAGTGGCCAGGGAAGGCTTCCTGGAAGAG | 421
CAGAGGACAGGATGCCAACCCCAAAACAGCAGCGAC | 1460
GAGGGGGAGGTTTCCGGGGCCTGTGATTACTACACT | 3850
TTGGGGTTGGCAGACAGCAGAGCAAAGGAAATTGGG | 431
AACAGACAGGATGTGGCCTCTGCCAAAAGCACCATC | 5980
GGGGCAGGAAACAGCGTCCTGCGCGCGTAGCCCCTG | 2160
TGTGTATGAGAACGGATATAGGTGGATTTATAAGGA | 1010
GCCGTGAGAAACATCCTGCCTAACTACCTGACTACA | 6690
CACCTCGGGGGTTTCCGGTCCGTGGCTAGCTCCTTC | 14800
GACATCCAGGAAGTGGTGAGAATCCACGTGTGTGTT | 6910
GTCGGAAGTGGCCGTGAGCCCAAGCCGAGGTCCCGG | 1130
CTCACAGGCCAGGAAAACAGCCGAAGTCACAGCAGG | 387
ACCACACTTCCCAGGAGTCTCAGCGCCCGCGCGGAG | 538
GAATCACCATTTCCTCACTCCCTCACAACCATGTTG | 2790
GCACGTGTTTCCTGGGGCTGCACCCCAGCACCACAC | 2380
CATTTCTTCCTTCCTTGGCCCCCGAAGTGCGCCCGC | 862
TAAGAGGAGACCTTAAACCAGAACCCTTCCTGGCAG | 345
AGGCTGTGGCGGAAGTGGTCGCGTTAGCGCTTGTTT | 4470
AGGACTGTAGGTTAGCTGCTCTGGGATGTGGCTGGG | 339
ATCTCCACATCCTCCCCATCGAGCGCATGGTTTACC | 3030
GGGAGGGCGGAAGGCGGCTCAGCGGCAGCAAGCCCC | 1010
GGCCGACGGGAAGTGTAGTCCGGCCTGCAGTCCGGG | 1970
GACAAAGAGGAAGTCCCCAAAAACTACAATAACAGT | 3600
GCCACAGCCGGAAGCAGGCTGACTACAAGTGCTAAG | 5390
CCTCCCCCAGCGGCCGCCACTTCCTTTGTTGTTGCT | 1500

Sequence | ETS1 binding intensity
GTGCCACTGAGAGGAAGGGGGCAACCCCAGTGGGAG | 456
GCTGTCCATTTCCGAGATGTTAATGCGCGATCTTGC | 1780
GCAAACGGAAGAGAGGAACGAAGGCCGAAGAGCTTG | 945
CCTTCCTTCCGGGGTCGGCCCCGCCCCCAAGCGCCG | 5970
GTTTGGAGGAAGGACCCAGGGGCCCTTGTAGCTCAC | 416 ± 52
CCCACATCCCGTGAGTCACCAGGTCCCATAAACCCT | 4270
CTCCTGTAGTTTCTAAACTGTCAGGATGTTGGCTTG | 397
GGCCTACGGCTGCTTCAGGCTCTCGGGAAGGAAGTT | 323
ACTGTGTCTGGTGTTCCACAGAGGAAACTGCAAAGC | 409
CAGCCCCAGGCGGATTAGTTTTTTAGGAAACCGAGA | 432
CCCCTACTTCCCTTTTTGCTGGGCCGTAGTTTCGGT | 3010
TCAGGGCTACAAGCTTGGGGCTGCTTCCTGGAACTG | 421
CGGGACCTGTTTCCTTGGGAACTACAAGATAAGACC | 520 ± 21
ACCAGGATGTAGTTTAGCTTAGGGGTAGTTATATCG | 845
GCACACCGGAACTCACACCTGAAATCACAGAACCAA | 3600
GGGATCTGGGTTCTGGGGTGCAGGATGTGGGGTGCT | 509
GGGTGCTTACTCGGCATGCTGTTGGGCTTCCGGTGT | 1260
TTCTGCACCAGAACTGTGCTCTGAGTTCAGGAAACT | 354
GCTGCTTCCGGCCGCTGGTCGCAGGGCTGAGGGACT | 26400
GTGGTGCTTTTCAGGTTGATACCGCTTCCTGAAGAT | 627
TCTCTTCAATCTGGTCCCCATCCGGCCACACCATCT | 953
TCCCCTGTAGGTTCCCCTCCCCAGGATGTTGCCACC | 466
CTCTCCACCTCCTTCCGACCAGGACCTCACCCCCCC | 574
GCACAAAATCGCACAAACAGCCGGAAGCACAGCCCC | 1430
CCTGTTCCGGGCTCCGTACACCCAGGCCTGCAGCTG | 1650
CACTACCCCAAATTATGCAGTGGAATTTCCTACATT | 520 ± 25
